The supplement of paper PMC3334620
The full ranking holds about 33,000 sequences; the median of “E-score (-0.5 to 0.5)” is about -0.032, and the highest 2% start at about 0.36. The list shows a part of the results.

Biological target: T1, Sko1 (UniProt Q02100)
T1 sequence: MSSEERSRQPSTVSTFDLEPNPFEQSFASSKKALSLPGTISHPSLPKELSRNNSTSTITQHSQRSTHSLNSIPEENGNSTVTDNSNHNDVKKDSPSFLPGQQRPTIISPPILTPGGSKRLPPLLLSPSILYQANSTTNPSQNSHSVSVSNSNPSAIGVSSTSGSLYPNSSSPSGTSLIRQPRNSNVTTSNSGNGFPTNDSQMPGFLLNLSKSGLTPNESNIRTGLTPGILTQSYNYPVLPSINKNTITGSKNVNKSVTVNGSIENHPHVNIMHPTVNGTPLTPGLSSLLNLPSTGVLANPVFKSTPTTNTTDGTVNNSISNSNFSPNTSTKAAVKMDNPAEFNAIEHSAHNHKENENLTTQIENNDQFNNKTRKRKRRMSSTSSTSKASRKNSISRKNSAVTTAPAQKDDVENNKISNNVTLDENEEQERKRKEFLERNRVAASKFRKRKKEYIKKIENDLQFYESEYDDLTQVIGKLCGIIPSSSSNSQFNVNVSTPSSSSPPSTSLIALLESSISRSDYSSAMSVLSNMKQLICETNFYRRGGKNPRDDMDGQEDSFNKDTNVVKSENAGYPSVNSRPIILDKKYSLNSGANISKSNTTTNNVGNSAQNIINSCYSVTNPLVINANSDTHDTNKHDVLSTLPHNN
Experiment: PBM E-score (8-mer binding enrichment) (E-score (-0.5 to 0.5)); higher = stronger / more preferred TF binding; most listed sequences are background and not binding sites
Conditions: protein concentration: 200 nM; construct: GST-full length
Summary of the method: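 Bound GST-tagged yeast transcription factors, applied at about 100-200 nM to double-stranded universal all-10-mer Agilent arrays, were detected with fluorescent anti-GST. Scans were normalised with masliner. A modified Wilcoxon-Mann-Whitney statistic, the E-score, was assigned to each ungapped eight-base word pooled with its reverse complement by the Universal PBM Analysis Suite.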

| Sequence | PBM E-score |
| --- | --- |
| AGTTCAAG | 0.0773 |
| CTGTGGAA | -0.164 |
| CAAGATCG | 0.153 |
| CTGTAAGC | -0.0774 |
| GGTGCATA | -0.0153 |
| GCTAATCC | 0.0126 |
| CACTGGGC | -0.304 |
| ATGTAATA | 0.376 |
| TTGAGAAA | 0.18 |
| GCGGACCA | -0.0942 |
| CTTGAACA | 0.0589 |
| CAAGAGCC | -0.168 |
| AACGTCGC | 0.233 |
| AAGCCGGA | -0.0802 |
| AATCCGGT | 0.00046 |
| CGATGGCG | -0.012 |
| CAGGGGAC | -0.381 |
| ACCTCCCG | -0.15 |
| TATCTGCA | 0.0664 |
| AAATTCTT | -0.0295 |
| TACAAGGA | -0.115 |
| GGCTCCTA | -0.247 |
| CTTCACCC | -0.125 |
| ACGTGCAA | 0.35 |
| GTTACGAA | 0.378 |

| Sequence | PBM E-score |
| --- | --- |
| GAAACCAC | 0.0504 |
| CAGCCCGC | -0.38 |
| CAAACACG | 0.305 |
| GACTAGAC | -0.107 |
| TGCGCTAA | 0.0952 |
| GCCGTTCC | -0.284 |
| ATTGGCAG | -0.286 |
| TATCTTGA | -0.00169 |
| CAGCAAAG | -0.0267 |
| ACGCTGCC | -0.138 |
| AGTCTCTC | -0.245 |
| GTCTCGAA | -0.136 |
| AAACAATA | 0.311 |
| CCTAAGCC | -0.224 |
| CAAACCAG | -0.071 |
| CCCGAACC | -0.263 |
| GGTAACAC | 0.0477 |
| CCGGTGCG | -0.0349 |
| CAGTGGTC | -0.178 |
| GGTCCTGA | -0.102 |
| CCTTATAC | 0.00093 |
| CAGTCACG | 0.105 |
| CCTGGTAG | -0.288 |
| CACACGCA | 0.22 |
| CACACCGG | -0.268 |

| Sequence | PBM E-score |
| --- | --- |
| CTGCTGGC | -0.365 |
| AAATATTT | 0.257 |
| ACCGTCCG | -0.304 |
| CCACTCTA | -0.0553 |
| AATTTTCA | 0.0476 |
| GACACTCA | -0.0269 |
| ACAGCTTG | 0.114 |
| ACTCCACT | 0.05 |
| CTGCCAGA | -0.254 |
| CTTTCACC | 0.109 |
| TAATGCGA | 0.131 |
| ATATACCG | 0.0491 |
| CGCAGCTA | 0.0509 |
| AGTACACC | -0.0855 |
| GTGGGCAA | -0.0649 |
| AAGTCGCC | -0.204 |
| CAGGCAAA | 0.00224 |
| CCTGGACC | -0.114 |
| ATCGGAAC | -0.0931 |
| ACCCCACG | -0.149 |
| GCGCTAAC | 0.0782 |
| CCAGAGCG | -0.251 |
| ACGTCTAC | 0.368 |
| AAATCCCC | -0.238 |
| AGCCTGAA | -0.26 |

| Sequence | PBM E-score |
| --- | --- |
| ATGCTCGC | -0.0952 |
| CTAACTAA | 0.0491 |
| AACTTGGC | -0.0803 |
| ACCATTGG | -0.15 |
| ACTGACGG | -0.104 |
| ACTCCCTC | -0.256 |
| GACGCATA | 0.295 |
| ACACACTC | 0.0488 |
| AACGCCTA | -0.122 |
| CATGAATA | 0.136 |
| AAGTGTGG | -0.0975 |
| ATCACACA | 0.177 |
| CATCGACA | -0.115 |
| CGGGAACG | -0.0966 |
| ACCCCGAG | -0.305 |
| AGGCCTGC | -0.301 |
| AGTCCTCG | -0.187 |
| GGAGCGGA | -0.324 |
| TGATCAAA | 0.124 |
| ATAGTAAA | 0.18 |
| CAACCCGG | -0.273 |
| GAAATAGC | 0.0207 |
| CCAGTCAC | -0.19 |
| CGTTACCC | -0.085 |
| CTGCGGCA | -0.154 |

| Sequence | PBM E-score |
| --- | --- |
| AACCGCCA | -0.0575 |
| GACGTACA | 0.446 |
| GTTTCAGA | 0.0398 |
| AGCGAGCC | -0.107 |
| AGAGAGTC | -0.237 |
| ACCCAAGA | -0.133 |
| CCGTCGGC | -0.337 |
| AAAATTGC | 0.169 |
| CAATGGTG | -0.136 |
| ATGGTTCC | -0.0546 |
| CGACCGAG | -0.161 |
| GTGGGAGA | -0.162 |
| CAACTTGC | -0.00599 |
| CATCGAGA | 0.0586 |
| CGCGCACA | 0.0376 |
| AAAATGTC | 0.184 |
| AGCTCTGG | -0.212 |
| ACTCCGAC | -0.179 |
| ATGCTAAC | -0.0063 |
| AGACCGCT | -0.159 |
| CCACCTAA | -0.105 |
| CTCAGAAG | -0.209 |
| ACGGGTGG | -0.173 |
| CATAACAA | 0.0788 |
| AACGGAGC | -0.2 |

| Sequence | PBM E-score |
| --- | --- |
| CCCCGTAC | -0.196 |
| GGCTGCCA | -0.277 |
| CACACGTC | 0.446 |
| AAGTCACT | 0.144 |
| CAGATGTC | 0.0629 |
| ACTCCCGG | -0.304 |
| CTCAGCTC | -0.284 |
| CCTCCCTA | -0.159 |
| GATGGAGA | -0.163 |
| GAGGAAGC | -0.233 |
| ATGACAGC | 0.159 |
| ACGGGGCC | -0.139 |
| CTTTAAGC | -0.0198 |
| CTCGATCC | -0.0525 |
| CTCTACCC | -0.142 |
| AAGATCTC | 0.00758 |
| GGGAACAC | -0.139 |
| CGACCAAC | -0.0167 |
| AATACTAG | 0.154 |
| AGACACCG | -0.0354 |
| ACCCATGC | -0.039 |
| TCATCAGA | 0.144 |
| GGTGGTAC | -0.293 |
| AACCAACG | 0.132 |
| TATTTCGA | 0.231 |

| Sequence | PBM E-score |
| --- | --- |
| GGTGAGTA | -0.195 |
| AGCAGCGC | -0.216 |
| AGTAGCAA | 0.141 |
| CAAAACCC | 0.131 |
| CCAGCGTC | -0.229 |
| CACTCATC | 0.0198 |
| CGCGCCAC | 0.0021 |
| AGACCCAA | -0.148 |
| GTGGAAAA | 0.0314 |
| GTGCGAAA | 0.0883 |
| AGACCACG | 0.00258 |
| AAACAAGA | 0.0562 |
| AGGACTTC | -0.236 |
| CATCTTCG | -0.0287 |
| GTCACTGA | 0.226 |
| ACATGCCT | -0.102 |
| ATTCTGAG | -0.104 |
| TATTGTCA | 0.218 |
| ATTTCACA | 0.128 |
| ACCGCCGA | -0.205 |
| CTTACAAA | 0.00511 |
| CGCGATCC | -0.103 |
